The values that follow come from ChEMBL document CHEMBL4888484, “Replenishing the malaria drug discovery pipeline: Screening and hit evaluation of the MMV Hit Generation Library 1 (HGL1) against asexual blood stage Plasmodium falciparum ,using a nano luciferase reporter read-out” (2022).

Among all 150,000 compounds or so, about 540 (0.36%) showed an effect of 50% or more. This is one part of the list.

This assay deals with Plasmodium falciparum. Nature of the assay: Primary screen in NF54 nanoGlo assay, in single point, at 2uM, 72h; a lower Z score goes with more inhibition. The class given is functional, Erythrocyte. Particulars: timepoint 72 hour.
`CC(C)Cc1nc(N2CCN(C(=O)c3ccc(Cl)c(Cl)c3)CC2)c2c(-c3ccc4ccccc4c3)noc2n1`: the % Inhibition (usually the drop in the measured response relative to a control, in per cent) came to 11% and the Z score is -1.06.
As to `Cc1cccc(CNC(=O)c2sc(Nc3ccc(C)cc3C)nc2C)c1`, the “% Inhibition” value came out at 35% and the Z score was -3.95.
The like results for `CCn1ncc(C(=O)Nc2nc(-c3ccc(C)cc3)c(C)s2)c1C(F)(F)F` were, in that order, -16% and 1.78.
`FC1(F)CC[C@H](Cc2nc(Cc3ccc4cn[nH]c4c3)no2)C1`: the “% Inhibition” value was -11% and the Z score worked out at 1.4.
With `CC(=O)NC[C@H]1CCN(C(=O)c2ccoc2C(C)C)C1`, the “% Inhibition” value is -12% and the Z score worked out at 2.27.
On to `O=C(CN1CCCCCC1)N1CCc2[nH]nc(C3CC3)c2C1`, for which the “% Inhibition” value was -3% and the Z score was found to be 0.41.
As for `c1ccc(CNc2nccc3c2c2ncnc(-c4ccccc4)c2n3Cc2ccccc2)cc1`, the “% Inhibition” value is listed as -9% and the Z score was found to be 1.78.
`CC(C)c1nnc(CN[C@@H](C)c2ccc(Cl)s2)n1C`: the “% Inhibition” value was -9% and the Z score is recorded as 1.4.
With `C#CCCC1(CCC(=O)N2CCN(c3ncc(F)cn3)CC2)N=N1`, the “% Inhibition” value is -14% and the Z score is recorded as 1.74.
In the case of `COC(=O)C1C2CCC(C2)C1NC(=O)c1cccn1C` (centres undefined), the “% Inhibition” value is recorded as -12% and the Z score amounted to 1.6.
On to `CCC(=O)N(CCCOC)Cc1c(-c2cccc(C)c2)noc1N1CCCC1`, for which the “% Inhibition” value was 1% and the Z score is given as -0.18.
`O=C(NCC1CCCO1)N1CCC(c2noc(-c3ccccc3)n2)C1` (centres undefined): the “% Inhibition” value is reported as -2% and the Z score was determined as 0.41.
The like results for `Cc1ccc2ncc(CN3CC[C@H](c4cnccn4)C3)cc2c1` were, in that order, -19% and 2.5.
The like results for `CC(C)(O)c1cn(C2CN(C(=O)c3ccc4ccccc4c3)C2)nn1` were, in that order, 0% and 0.05.
`CC(C)CCNC(=O)NCc1nc([C@H]2CC(=O)N(Cc3ccc(F)cc3)C2)no1`: the “% Inhibition” value is given as -10% and the Z score came out at 1.13.
On to `O=C(Nc1ccc(CCN2CCCC2)cc1)c1cccnc1C1CC1`, for which the “% Inhibition” value is recorded as -16% and the Z score came to 2.52.
As for `O=C(Cn1nc2n(c1=O)C(=O)N(c1ccccc1)C2)Nc1cc(F)ccc1F`, the “% Inhibition” value is -6% and the Z score was determined as 0.82.
Consider `Cc1ccc(S(=O)(=O)Nc2ccccc2-c2ccc3cc(C)ccc3n2)cc1`, for which the “% Inhibition” value was determined as 5% and the Z score is -0.6.
Turning to `CCCCn1c(N)c(N(Cc2ccccc2OC)C(=O)c2ccc(F)cc2)c(=O)[nH]c1=O`, the “% Inhibition” value is 3% and the Z score was -0.31.
On to `Cc1nc(-c2ncc(C(=O)N(C)[C@@H](C)c3ccon3)c(O)n2)cs1`, for which the “% Inhibition” value was 9% and the Z score is reported as -1.24.
`CC1CCN(c2nc(N3CCN(C)CC3)nc3c2CN(C(=O)c2cccc(F)c2)CC3)CC1`: the “% Inhibition” value came out at 0% and the Z score is 0.03.
`Cc1ncccc1C(=O)N1CCC(Cc2ncc(C)n2Cc2ccc(F)cc2)CC1`: the “% Inhibition” value is -11% and the Z score is on record as 1.65.
In the case of `CC(C)c1nc2ccc(C(=O)N[C@@H](C)c3ccc4c(c3)OCCO4)cc2o1`, the “% Inhibition” value is listed as -19% and the Z score was 1.75.
For the compound `CCCOc1ccc(Br)cc1C#N`, the “% Inhibition” value is on record as -20% and the Z score is 1.77.
Consider `CC1CCCC(C(=O)Nc2ccc(OCC(=O)N(C)C)cc2F)C1` (centres undefined), for which the “% Inhibition” value is on record as -13% and the Z score is 1.72.
For `O=C(O)[C@@H]1COCCN1C(=O)c1nc(-c2ccccc2)n(-c2ccccc2)n1`, the “% Inhibition” value is listed as -3% and the Z score worked out at 0.32.
As for `Cc1nc(C(N)=O)n(CC(=O)Nc2ccc(Cl)cc2)n1`, the “% Inhibition” value was -6% and the Z score is listed as 0.62.
Consider `CC1CN(C(=O)c2ccc3c(c2)CCC3)CC(C)O1` (centres undefined), for which the “% Inhibition” value was -3% and the Z score is recorded as 0.4.
Take `CC(C)(CNC(=O)C1C2CCCC21)CC1CCOCC1` (centres undefined): the “% Inhibition” value was -6% and the Z score is reported as 0.8.
For `C[C@H]1CCCN(Cc2ccccc2CNCc2ncc[nH]2)C1`, the “% Inhibition” value is recorded as 1% and the Z score is on record as -0.09.
The matching figures for `Cc1ccc(CN2CCC(N3CC[C@@H]4CCCC[C@H]4C3)CCC2=O)cc1` (some centres undefined): -10% and 1.28.
Take `COc1ccc(-c2noc(Cc3nnc(-c4cccc(Br)c4)o3)n2)cc1`: the “% Inhibition” value is listed as -12% and the Z score was 1.87.
The matching figures for `Cc1cc(NC(=O)N2CCN(c3ncc[nH]c3=O)CC2)c(Cl)cc1F`: -1% and 0.17.
For the compound `O=C(NCc1ccc2c(c1)OCO2)c1cc2cn(C3CCCC3)cc2s1`, the “% Inhibition” value is given as 2% and the Z score is listed as -0.32.
Regarding `c1ccc(-n2ncc3c(NC4CCCC4)nnnc32)cc1`, the “% Inhibition” value is -12% and the Z score stood at 1.82.
The matching figures for `CCn1ccc2ccc(CN(C)C[C@H]3CCOC3)cc21`: 0% and -0.09.
For the compound `Cc1c(C(=O)O)sc2ncnc(Nc3ccc(N(C)C)cc3)c12`, the “% Inhibition” value is -11% and the Z score was 1.21.
Take `CCCC[C@H](CC)C(=O)Nc1ccccc1C(N)=O`: the “% Inhibition” value is recorded as -8% and the Z score turned out to be 1.15.
For the compound `CC1CNCCN1C(=O)C1Cc2cccc(F)c2O1` (centres undefined), the “% Inhibition” value is -16% and the Z score turned out to be 1.93.
The like results for `Cc1noc(C)c1CN1C(=O)[C@@H]2CC[C@H]1CN(C(=O)[C@H]1CC[C@@H](O)CC1)C2` were, in that order, 7% and -0.9.
In the case of `CCc1nnc(CN(CC)Cc2ccc([C@@H]3CCCO3)s2)o1`, the “% Inhibition” value is -12% and the Z score is 1.38.
On to `O=C(CCc1cc2ccccc2o1)Nc1nnc[nH]1`, for which the “% Inhibition” value is listed as -10% and the Z score is reported as 1.54.
